58 molecules from publication PMC4336329 (PLoS ONE, 2015) can be followed below.

In all, about 310,000 compounds went through this assay and about 2,200 (0.71%) showed an effect of 50% or more. The effect is printed as a negative number. Some of the results follow.

This test deals with human ether-à-go-go-related gene (hERG) potassium channel (human, UniProt Q12809). The test can be described thus: primary screen, population patch clamp on CHO cells stably expressing hERG.
human ether-à-go-go-related gene (hERG) potassium channel, sequence (Q12809 whole entry, looked up): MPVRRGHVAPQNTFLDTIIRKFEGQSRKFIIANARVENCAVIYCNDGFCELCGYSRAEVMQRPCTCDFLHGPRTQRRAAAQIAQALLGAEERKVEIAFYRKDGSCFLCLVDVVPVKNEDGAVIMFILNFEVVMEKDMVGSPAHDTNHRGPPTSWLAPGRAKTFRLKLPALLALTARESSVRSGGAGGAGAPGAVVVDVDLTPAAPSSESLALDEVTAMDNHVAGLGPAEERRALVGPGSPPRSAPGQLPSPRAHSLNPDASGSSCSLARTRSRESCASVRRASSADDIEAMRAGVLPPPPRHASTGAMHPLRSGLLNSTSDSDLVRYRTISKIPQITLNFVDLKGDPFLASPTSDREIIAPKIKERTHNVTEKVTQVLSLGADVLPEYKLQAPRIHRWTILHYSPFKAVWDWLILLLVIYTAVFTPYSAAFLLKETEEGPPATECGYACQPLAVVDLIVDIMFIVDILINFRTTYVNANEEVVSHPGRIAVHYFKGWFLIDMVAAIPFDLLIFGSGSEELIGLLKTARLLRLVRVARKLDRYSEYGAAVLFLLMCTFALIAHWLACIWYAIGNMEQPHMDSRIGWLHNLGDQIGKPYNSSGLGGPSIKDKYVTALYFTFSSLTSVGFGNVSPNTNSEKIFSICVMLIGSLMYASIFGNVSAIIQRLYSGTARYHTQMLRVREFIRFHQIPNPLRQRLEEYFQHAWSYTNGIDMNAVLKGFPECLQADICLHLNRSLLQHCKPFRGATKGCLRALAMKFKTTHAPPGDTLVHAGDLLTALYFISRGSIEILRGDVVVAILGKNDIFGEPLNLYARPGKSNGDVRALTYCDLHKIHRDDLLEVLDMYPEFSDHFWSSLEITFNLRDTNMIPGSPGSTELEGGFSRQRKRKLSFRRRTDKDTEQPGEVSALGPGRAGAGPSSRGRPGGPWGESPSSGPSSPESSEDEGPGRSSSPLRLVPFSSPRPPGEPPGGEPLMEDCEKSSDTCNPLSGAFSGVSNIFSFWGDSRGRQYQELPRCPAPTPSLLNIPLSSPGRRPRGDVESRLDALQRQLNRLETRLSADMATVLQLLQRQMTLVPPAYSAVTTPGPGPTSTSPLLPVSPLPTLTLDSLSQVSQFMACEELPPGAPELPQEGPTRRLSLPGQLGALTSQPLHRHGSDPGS
Consider `CCCCCn1c(=O)c(C(=O)Nc2ccccc2C)c(O)c2ccccc21`, for which the “hERG current change (%, negative = inhibition) at 1uM” value came out at 20.5%.
As to `O=[N+]([O-])c1cn(Cc2ccccc2)cn1`, the “hERG current change (%, negative = inhibition) at 1uM” value is reported as 7.46%.
As for `CN(c1ccc(O)cc1)c1nc(O)c(C2=c3ccccc3=NC2=O)s1`, the figure is 8.57%; as for `CCc1cccc2c(SCC(=O)NCC3CCCO3)nc(-c3ccc(F)cc3)nc12` (stereo not shown), 13.3%.
In the case of `CSc1nc(=S)n(Cc2ccccc2)c(C)c1C(C)=O`, the “hERG current change (%, negative = inhibition) at 1uM” value was found to be 10.4%.
As for `COc1ccc(NC(=O)c2cc(S(=O)(=O)N3CCS(=O)(=O)CC3)ccc2Cl)cc1`, the figure is 6.7%; as for `COc1ccc(S(=O)(=O)N2CCCCCC2)cc1C(=O)NCCc1ccccc1`, 1.5%; as for `COc1cccc(CNC(=O)C2=C(C)C(=O)OC23CCC(C)CC3)c1` (stereo not shown), 1.11%.
Consider `CC1CCN(C(=O)CSc2nc(C(C)C)nc3c2c(=O)n(C)c(=O)n3C)CC1`, for which the “hERG current change (%, negative = inhibition) at 1uM” value was found to be 6.77%.
`COc1ccccc1NS(=O)(=O)c1ccc2c(c1)n(C)c(=O)n2C`: the “hERG current change (%, negative = inhibition) at 1uM” value is -0.0251%.
As for `O=C(O)CCCC(=O)Nc1ccc(Oc2ncnc3cc(Cl)ccc23)nc1`, the figure is 4.36%; as for `CC(C)c1ccc(NC(=O)C2CC(=O)Nc3nc4ccccc4n32)cc1` (stereo not shown), 18.6%; as for `O=C(NC1CCCC1)c1cc(COc2ccc3ncccc3c2)on1`, 7.53%.
`COC(=O)C1C/C(=N/NS(=O)(=O)c2ccc(C)cc2)CS1` (stereo not shown): the “hERG current change (%, negative = inhibition) at 1uM” value is 12.5%.
As for `CC1=Nc2ccccc2N=C(NC(=O)CSc2nnnn2-c2ccccc2)C1c1ccccc1` (stereo not shown), the “hERG current change (%, negative = inhibition) at 1uM” value is 12.2%.
Consider `O=C(O)C1CC=CCC1C(=O)Nc1ccccc1Cl` (stereo not shown), for which the “hERG current change (%, negative = inhibition) at 1uM” value was 10.9%.
In the case of `Cn1cccc1/C=C1\SC(=S)N(NC(=O)c2ccc(Cl)cc2)C1=O` it was 17.6%.
In the case of `Cc1cc(/C=C(\C#N)C(=O)Nc2ccc(F)cc2)c(C)n1-c1ccc(N2CCOCC2)c([N+](=O)[O-])c1` it was 0.296%; in that of `CC1=C(C(=O)O)N2C(=O)C(NC(=O)CCCC(=O)O)C2SC1` (stereo not shown), 10%.
In the case of `O=c1c(-c2ccc(F)cc2)coc2cc(O)ccc12`, the “hERG current change (%, negative = inhibition) at 1uM” value is reported as 5.42%.
`Fc1ccc(NC(=S)Nc2cc(Cl)ccc2Cl)cc1`: the “hERG current change (%, negative = inhibition) at 1uM” value is given as 13.9%.
As for `COc1ccc(C(=O)O)cc1S(=O)(=O)N1CCCc2ccccc21`, the figure is 16.8%; as for `COC(=O)c1ccc(CN2CCCC(C(=O)Nc3cccc(-n4cccn4)c3)C2)cc1` (stereo not shown), 12.7%.
In the case of `CN(C)c1ccc(/C=N/NC(=O)CSc2ccccn2)cc1` it was 15.7%.
In the case of `O=C(CSc1nc2[nH]ncc2c(=O)[nH]1)c1ccc(Cl)cc1` it was 6.83%; in that of `CN(C)c1ccc(C=C(c2nnnn2-c2ccccc2)c2nnnn2-c2ccccc2)cc1`, 12.7%.
`NC(=O)c1cc(Cl)ccc1OCC(=O)Nc1ccc2c(c1)OCO2`: the “hERG current change (%, negative = inhibition) at 1uM” value is recorded as 2.94%.
`O=C(CN1C(=O)CSC1=O)Nc1ccc(F)c(F)c1F`: the “hERG current change (%, negative = inhibition) at 1uM” value amounted to 8.29%.
In the case of `COc1ccc(/C=N/NC(=O)c2cc[n+]([O-])cc2)cc1` it was 13%.
As for `Cl.NCC(c1ccccc1)(c1ccccc1)c1ccccc1`, the figure is 9.03%; as for `O=C(O)c1cc(-c2ccccc2)n[nH]1`, 11.4%.
In the case of `CCOC(=O)C1CCCN(S(=O)(=O)c2cc(C(=O)OC)n(C)c2)C1` (stereo not shown) it was 18.3%.
On to `CCOc1ccc(CC(=O)Nc2c(C(N)=O)oc3ccccc23)cc1OCC`, for which the “hERG current change (%, negative = inhibition) at 1uM” value is listed as 13.6%.
As for `Cc1ccc(OCC(=O)NNC(=S)NC(=O)c2cccs2)c(C)c1`, the figure is 16.1%.
In the case of `O=C1NN(c2ccc(F)cc2)C(=O)/C1=C\c1cnn(-c2ccccc2)c1` it was 5%; in that of `O=C(c1ccc(F)cc1)C1CCN(C(=O)NCc2ccccc2)CC1`, -5.59%.
As for `COc1cccc(C(=O)Nc2c3c(nn2-c2ccc([N+](=O)[O-])cc2)CS(=O)(=O)C3)c1`, the figure is -16.8%.
Regarding `CSc1ncccc1C(=O)NCc1ccc(C)cc1`, the “hERG current change (%, negative = inhibition) at 1uM” value is listed as 13.7%.
In the case of `CCCC1=NN2C(=N)/C(=C\c3cc(C)n(-c4cccc(C)c4)c3C)C(=O)N=C2S1` it was 9.49%; in that of `COC(=O)N/N=C/c1cn(CCOc2ccccc2)c2ccccc12`, 13.5%; in that of `N#CC1=C(N)Oc2cc(O)c(Cl)cc2C1c1ccccc1F` (stereo not shown), 4.36%.
Take `COc1cccc(NC(=O)C2CCCN(S(=O)(=O)c3cccc4nsnc34)C2)c1` (stereo not shown): the “hERG current change (%, negative = inhibition) at 1uM” value amounted to 7.5%.
In the case of `C/C(=N\Nc1nncc2ccccc12)c1ccc(Cl)c([N+](=O)[O-])c1` it was 14.5%; in that of `NNC(=O)c1oc2nc(-c3ccc(Cl)cc3)cc(-c3ccccc3)c2c1N`, 16.4%; in that of `Cc1cc(C)c2ccc(Cl)cc2n1`, 13.5%.
In the case of `Cc1cc(OC(=O)c2c(Cl)cccc2Cl)nc(C)n1` it was -7.43%.
For `Cc1cc(NC(=O)C2C3C(=O)N(c4cccnc4)C(C(=O)NC(C)(C)C)C34C=CC2(C)O4)no1` (stereo not shown), the “hERG current change (%, negative = inhibition) at 1uM” value was 26.4%.
In the case of `CCOC(=O)CSC(CC)C(=O)Nc1nnc(C(C)C)s1` (stereo not shown) it was 4.92%; in that of `N#Cc1cc2ccccc2nc1SCC(=O)Nc1ccc(S(=O)(=O)N2CCCC2)cc1`, 11.9%; in that of `COc1ccc(Cn2nnnc2C(C(C)C)N2CCc3ccccc32)cc1` (stereo not shown), 3.74%.
As for `Cc1ccc(OCc2ccc(Br)cc2)c([N+](=O)[O-])n1`, the figure is 7.33%; as for `Cn1c(C(C#N)C2=C(Cl)C(=O)N(c3ccccc3)C2=O)nc2ccccc21` (stereo not shown), 6.28%; as for `O=C(c1cccc(C(F)(F)F)c1)C1CCCN(Cc2cccn2-c2ccccn2)C1` (stereo not shown), -90.4%.
`O=C(NCc1cccs1)c1ccc(Br)o1`: the “hERG current change (%, negative = inhibition) at 1uM” value is recorded as 11.9%.
On to `COc1cc(CNCCc2ccc(S(N)(=O)=O)cc2)ccc1OCC(=O)NC1CCCCC1.Cl`, for which the “hERG current change (%, negative = inhibition) at 1uM” value is 23.4%.
In the case of `NC(=O)C1CN(C(=O)c2cccc(S(=O)(=O)N3CCc4ccccc43)c2)c2ccccc2O1` (stereo not shown) it was 9.66%; in that of `CCC1C/C(=C\c2cc(OC)c(OC)cc2OC)C(=O)/C(=C/c2cc(OC)c(OC)cc2OC)C1` (stereo not shown), 13.8%; in that of `O=C(c1cccc(S(=O)(=O)NCc2ccc3c(c2)OCO3)c1)N1CCCC1`, 6.84%.
